Data taken from article PMC4336329 (PLoS ONE, 2015).
Out of some 310,000 compounds screened, about 14,000 (4.5%) showed an effect of 50% or more. Effects have a minus sign here. The list shows a part of the results.

Target: human ether-à-go-go-related gene (hERG) potassium channel (human, UniProt Q12809)
Test: primary screen, population patch clamp on CHO cells stably expressing hERG
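Note: peak tail current of the secondary pulse compared with the same well before compound.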

Chain of human ether-à-go-go-related gene (hERG) potassium channel (Q12809 whole entry, looked up): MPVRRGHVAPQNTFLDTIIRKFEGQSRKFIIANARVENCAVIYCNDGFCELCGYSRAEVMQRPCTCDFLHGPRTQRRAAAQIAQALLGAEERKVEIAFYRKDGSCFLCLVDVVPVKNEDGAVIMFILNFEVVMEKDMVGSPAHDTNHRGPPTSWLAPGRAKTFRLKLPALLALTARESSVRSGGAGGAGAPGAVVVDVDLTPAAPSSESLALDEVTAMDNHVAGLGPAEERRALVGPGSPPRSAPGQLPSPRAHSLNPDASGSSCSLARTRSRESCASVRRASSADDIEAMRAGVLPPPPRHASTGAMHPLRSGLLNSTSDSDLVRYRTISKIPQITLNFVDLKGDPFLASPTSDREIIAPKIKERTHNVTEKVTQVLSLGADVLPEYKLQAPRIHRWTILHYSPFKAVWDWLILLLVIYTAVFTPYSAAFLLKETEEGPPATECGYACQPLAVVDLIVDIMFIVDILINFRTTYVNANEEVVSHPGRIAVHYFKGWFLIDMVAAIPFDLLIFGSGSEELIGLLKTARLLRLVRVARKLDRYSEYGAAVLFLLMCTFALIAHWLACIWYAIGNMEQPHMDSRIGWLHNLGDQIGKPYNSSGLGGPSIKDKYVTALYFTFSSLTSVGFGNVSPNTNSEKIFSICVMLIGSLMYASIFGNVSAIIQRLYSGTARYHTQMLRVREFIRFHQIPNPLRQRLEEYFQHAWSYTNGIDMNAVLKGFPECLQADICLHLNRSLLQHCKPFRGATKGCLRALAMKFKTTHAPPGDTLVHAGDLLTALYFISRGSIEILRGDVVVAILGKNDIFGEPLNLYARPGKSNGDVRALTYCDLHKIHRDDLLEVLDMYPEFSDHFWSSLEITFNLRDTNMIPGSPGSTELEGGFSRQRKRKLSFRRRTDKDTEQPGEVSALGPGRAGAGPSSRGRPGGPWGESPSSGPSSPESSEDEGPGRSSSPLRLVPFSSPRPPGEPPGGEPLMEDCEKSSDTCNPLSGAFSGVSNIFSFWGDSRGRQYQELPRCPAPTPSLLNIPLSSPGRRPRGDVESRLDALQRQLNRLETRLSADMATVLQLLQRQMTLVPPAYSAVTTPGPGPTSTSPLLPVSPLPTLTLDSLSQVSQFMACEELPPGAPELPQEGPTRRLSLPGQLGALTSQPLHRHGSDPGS

SMILES | hERG current change (%, negative = inhibition) at 10uM [%]
Cc1ccc(S(=O)(=O)n2nc(OC(=O)C3CCCCC3)cc2N)cc1 | -19.2
COC(=O)CSC1=C(C#N)C(c2ccc3c(c2)OCO3)C2=C(CCCC2=O)N1 (centres unmarked) | -5.49
N#Cc1ccc(-n2c(-c3ccccc3)nnc2-c2ccccc2)cc1C#N | -15.5
CCOC(=O)C1(Cc2ccc(Cl)cc2)CCN(C(C)CCn2cccn2)CC1 (centres unmarked) | -87.2
CC(C)n1c(SCc2cc(=O)[nH]c3ccccc23)nc2c1c(=O)n(C)c(=O)n2C | -7.13
Cc1ccc(N2C(=O)CC(NNc3nc4ccccc4s3)C2=O)cc1 (centres unmarked) | -3.18
Cc1cccc2cc(C#N)c(SCC(=O)N3CC(=O)Nc4ccccc43)nc12 | 2.24
CCCN(CC(=O)Nc1ccccc1C)C(=O)c1ccc(-c2ccccc2)cc1 | -10.5
CC(=O)c1cccc(NC(=O)c2c(C)nn(-c3ccccc3)c2Cl)c1 | -24.4
Cc1c(Nc2nc(-c3ccc(Cl)cc3)cs2)c(=O)n(-c2ccccc2)n1C | -17.3
COCCn1c(=NC(=O)c2ccco2)sc2cc(C(=O)OC)ccc21 | 2.42
COCCNC(=S)N1CCC(Cc2ccccc2)CC1 | -24.9
COc1ccc(-c2nc(CS(=O)CC(=O)NC3CCCCC3)c(C)o2)cc1OC (centres unmarked) | -9.2
Cl.Nn1cnnc1N/N=C/c1ccc(Cl)c([N+](=O)[O-])c1 | -26.6
CCC(C(=O)NCc1cccnc1)c1ccccc1 (centres unmarked) | -2.33
COCCN(CC(=O)NCc1ccc(F)cc1)C(=O)CCC(=O)Nc1nccs1 | 0.181
Cc1ccc(C)c(OCC(=O)N2CCCN(C)CC2)c1 | 22.3
S=c1[nH]nc(-c2cc(-c3ccccc3)n[nH]2)n1/N=C/C(Br)=C/c1ccccc1 | 8.45
COc1ccc(C/C(N)=N/OC(=O)Cc2ccccc2)cc1OC | 7.14
CCOC(=O)c1cc(NC(=O)C2CCCO2)cc(C(=O)OCC)c1 (centres unmarked) | -6.44
Cc1cc(=O)oc2c(N)c(O)ccc12 | 3.25
Cc1c(Nc2nc3ccccc3nc2NS(=O)(=O)c2cccs2)c(=O)n(-c2ccccc2)n1C | 1.13

SMILES | hERG current change (%, negative = inhibition) at 10uM [%]
Cc1ccc(S(=O)(=O)NCCCCCC(=O)Nc2ccccc2)cc1 | 4.49
CC1(C)CC(=O)c2cc3c(nc2C1)CC(C)(C)CC3=O | 6.51
C=CCn1c(O)c(C=NCCN2CCNCC2)c(=O)[nH]c1=O | 13.8
COc1ccc(N(CC(O)CN2CCOCC2)S(=O)(=O)c2ccccc2)cc1 (centres unmarked) | -12.1
COc1ccc(NS(=O)(=O)c2cc(NC(=O)C3CC3)ccc2N2CCCCC2)cc1 | 9.99
N=C1C=CC=C2C1=NC1(CCCCC1)N2O | 11.2
O=C(Nc1nccs1)c1cc(-c2ccccn2)nc2c(Cl)cccc12 | 14.5
Cc1ccc2nsnc2c1-n1c(C)nc2ccccc2c1=O | 15.4
COC(=O)C1=C(SC)N(c2ccc(OC)cc2)C(c2ccccc2)CC1=O (centres unmarked) | -20.9
CCOC(=O)CCCNC(=O)CCNC(=O)c1ccc(OCC(C)C)cc1 | 3.61
OCC[C@@H]1C[C@@H](O)[C@H](O)[C@@]2(CCCO2)O1 | 6.76
COC(=O)c1cccc(NC(=O)c2cc3ccccc3o2)c1 | -18
Clc1ccc(OCCSCc2nc3ccccc3[nH]2)cc1 | -33.9
COc1cccc(N2C(=O)C3CCCN3C2c2ccc(N(C)C)cc2)c1 (centres unmarked) | 2.1
O=C(CNC(=O)C(c1ccccc1)c1ccccc1)N/N=C/c1ccc(O)cc1O | -4.68
Cc1cccc(OCC(=O)Nc2ccccc2N2CCN(C(=O)C(C)C)CC2)c1C | -2.63
N#CCCN(CCC#N)S(=O)(=O)c1ccc(C(=O)Nc2nnc(C3=COCCO3)o2)cc1 | 16.9
Cc1cc(-c2ccc(C)c(S(=O)(=O)N3CCN(C(=O)c4ccco4)CC3)c2)on1 | -51.8
COc1ccc(-c2nn[nH]n2)cc1OC | 12.4
Cc1cccc(N2CC(C(=O)NCC3COc4ccccc4O3)CC2=O)c1C (centres unmarked) | -11.3
COc1ccc(C(=O)CSc2ccc3nnc(-c4cccnc4)n3n2)cc1 | -70.3
CC(=O)/C(C(=N)N1CCN(C(c2ccccc2)c2ccccc2)CC1)=C(\C)O | 8.3
